From PubChem BioAssay (NCATS) come the findings set out here.

A short description of assay [1]: qHTS of pediatric cancer cell lines to identify multiple opportunities for drug repurposing: Primary screen for SK-N-MC cells (AID 1347093). For orientation: In qHTS, concentration-response curves come from the screen itself.
Assay [2] can be described thus: qHTS of pediatric cancer cell lines to identify multiple opportunities for drug repurposing: Primary screen for BT-37 cells (AID 1347094). The procedure, abridged:
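Plated cells (500-1,000 per well, growth media) were allowed to settle for 5 hours, treated with compound dilutions for 48 hours, then lysed with CellTiter-Glo for 15 min at room temperature before luminescence reading.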

Assay [3] in a line: qHTS of pediatric cancer cell lines to identify multiple opportunities for drug repurposing: Primary screen for NB-EBc1 cells (AID 1347095).
A short description of assay [4]: qHTS of pediatric cancer cell lines to identify multiple opportunities for drug repurposing: Primary screen for LAN-5 cells (AID 1347100). The procedure, abridged:
(§1)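 Cells (500-1,000/well) in growth media were settled 5 h at 37 degrees C, then given compounds for 48 h. Viability was read as CellTiter-Glo luminescence. Primary runs used MIPE at 11 points (0.78 nM-46 µM) and NPC at 8 points (0.59 nM-46 µM); follow-ups used 11 points.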

Assay [5] can be described thus: qHTS of pediatric cancer cell lines to identify multiple opportunities for drug repurposing: Primary screen for U-2 OS cells (AID 1347096). Further: nearly all actives have a fitted effect of over 50% in size. In a few lines:
as §1

Assay [6] can be described thus: qHTS of pediatric cancer cell lines to identify multiple opportunities for drug repurposing: Confirmatory screen for BT-12 cells (AID 1347112). Further: nearly all actives have a fitted effect of over 55% in size. The procedure, abridged:
as §1

A short description of assay [7]: qHTS of pediatric cancer cell lines to identify multiple opportunities for drug repurposing: Confirmatory screen for LAN-5 cells (AID 1347113). Further: nearly all actives have a fitted effect of over 65% in size. In a few lines:
as §1

Assay [8] can be described thus: qHTS of pediatric cancer cell lines to identify multiple opportunities for drug repurposing: Confirmatory screen for NB-EBc1 cells (AID 1347115).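 Further: cells exposed to compound for 48 h before the viability read; nearly all actives have a fitted effect of over 45% in size.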 The procedure, abridged: as §1
The nature of assay [9]: qHTS of pediatric cancer cell lines to identify multiple opportunities for drug repurposing: Confirmatory screen for Rh18 cells (AID 1347125). Further: nearly all actives have a fitted effect of over 55% in size. The procedure, abridged: as §1
Assay [10] in a line: qHTS of pediatric cancer cell lines to identify multiple opportunities for drug repurposing: Confirmatory screen for Rh30 cells (AID 1347126). Further: nearly all actives have a fitted effect of over 55% in size. The procedure, abridged: as §1
Assay [11] is described as follows: qHTS of pediatric cancer cell lines to identify multiple opportunities for drug repurposing: Confirmatory screen for SK-N-SH cells (AID 1347129).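 Further: cells exposed to compound for 48 h before viability read; nearly all actives have a fitted effect of over 60% in size.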 The procedure, abridged:
as §1

Inconclusive results are not listed. The call rests on the fitted dose curve; in most records, active means well fitted curve in the direction sought with a large enough effect; inconclusive means small, poorly fitted or top-dose-only effect, or another doubt; inactive means no such curve, though single readings can be large; an effect the other way counts as inactive or inconclusive. A structure can be active in one record and inactive in another. Not every entry of the source has a single result; some have several. This is not the full list of results. An entry can have further records. Results that share an entry are repeated measurements across runs, samples, wells, individuals or studies. What stands in brackets tells the records apart. The letters are not those of the source and start again with each entry.
Potency means the concentration at half of the fitted maximal effect.

`COc1ccc2c(c1)c(CC(=O)OCC(=O)O)c(C)n2C(=O)c1ccc(Cl)cc1`: in assay [1], the Potency entry was “inactive [sample A] and active: 18.7 µM [sample B]”.

For `Nc1[nH]c(=O)ncc1F`, the Potency result in assay [2] is “inactive [sample A] and active: 24.3 µM [sample B]”; in assay [3], “inactive [sample A] and active: 8.33 µM [sample B]”; in assay [4] it was “inactive [sample A] and active: 20.9 µM [sample B]”.

Regarding `Cn1nnc2c(C(N)=O)ncn2c1=O`, in [3], the Potency result is “inactive [sample A] and active: 18.7 µM [sample B]”.

Take `COC(=O)Nc1nc2ccc(S(=O)c3ccccc3)cc2[nH]1` (stereo not drawn): in assay [5], the Potency result is “active: 10.6 µM [sample A] and inactive [sample B]”.

In the case of `Nc1nc(F)nc2c1ncn2[C@@H]1O[C@H](CO)[C@@H](O)[C@@H]1O`, the Potency entry in assay [5] is “inactive [sample A] and active: 935 nM [sample B]”; in assay [6], “inactive [sample A] and active: 2.33 µM [sample B]”; in assay [7], “inactive [sample A] and active: 369 nM [sample B]”; in assay [8] it was “inactive [sample A] and active: 1.31 µM [sample B]”; in assay [9], “inactive [sample A] and active: 827 nM [sample B]”; in assay [10] it was “inactive [sample A] and active: 1.31 µM [sample B]”. In addition, the Potency result in [11] was “inactive [sample A] and active: 833 nM [sample B]”.
